The campaign covered roughly 94,000 compounds. About 6,200 (6.6%) were called active. This list was built around the results that the source calls inconclusive (neither active nor inactive); the mix of calls is not that of the screen. Calls follow the shape of the dose curve; as a rule, active = well fitted inhibition curve with a large enough effect; inconclusive = small, poorly fitted or top-dose-only effect; inactive = flat fitted curve, though single readings scatter. Where the call is inconclusive, the potency comes from a doubtful curve fit.
Assay: Cytotoxic Profiling in HEK 293 Cell Line of Diverse Libraries Using Quantitative High-Throughput Screening; also: nearly all actives have a fitted effect of over 60% in size
Conditions: HEK 293 viability, ATP luminescence (CellTiter-Glo), 48-72 h; series mostly up to 115 µM
Text: Cell-based phenotypic screening is a commonly used approach to discover biological pathways, novel drug targets, chemical probes and high-quality hit-to-lead molecules. Many hits identified from high-throughput screening campaign are ruled out through a series of follow-up potency, selectivity/specificity, and cytotoxicity assays. Prioritization of molecules with little or no cytotoxicity for a more in-depth downstream evaluation influence the future direction of projects, so cytotoxicity profiling of the screening libraries at early stage is essential for increasing the likelihood of candidate success. In this study, we analyzed results from a cell-based cytotoxicity screening campaign, comprising nearly 10,000 compounds in NCATS annotated libraries, and over 100,000 compounds in a diversity library, evaluated in four normal cell lines (HEK 293, NIH 3T3, CRL-7250 and HaCat) and a cancer cell line (KB 3-1, a HeLa subline) with overall screening outcomes, hit rates, pan-activity and selectivity. For the annotated library, we also examined the primary targets and mechanistic pathways regularly associated with cell death. To our knowledge, this is the first study to use high-throughput screening to profile large libraries for cytotoxicity assessment in both normal and cancer cell lines. In summary, the results generated here constitutes a valuable resource for the scientific community and provides insight on identifying cytotoxic compounds with particular mechanisms of action, and prioritizing compounds with suitable cytotoxicity profile for further evaluation.
HEK 293 cells were seeded into white 1536-well plates using a Multidrop Combi peristaltic dispenser (ThermoFisher, Waltham, MA) at a density of 250 cells/well in 5 uL of medium respectively. A pintool (Kalypsys) was used to transfer 23 nL of compound solution to the 1536-well assay plates. After 48 or 72 hr incubation at 37 degree Celsius, 5% CO2 and 95% humidity, 2.5 uL of CellTiter-Glo (Promega) was dispensed into each well using a dispenser (Aspect Automation, St. Paul, MN) with solenoid valves (Lee Valves, Westbrook CT). Plates were left at room temperature for 10 min before imaging the ATP-coupled luminescence using a ViewLux microplate imager (PerkinElmer, Waltham, MA).
Potency is read from the fitted curve at half-maximal effect; tags tell the direction and shape of the fitted curve.

Compound	Potency
Cc1cc(CN2CCC23Cc2ccccc2NC3=O)no1 (stereo not drawn)	inactive
Cc1nc(-c2cccs2)cc([C@H]2CN3CC[C@H]2C[C@@H]3COC(=O)Nc2ccc(C(C)C)cc2)n1	active: 5.62 µM
O=C(O)CCCC(=O)N1C[C@@H]2C[C@H](C1)c1ccc(-c3ccc(Cl)cc3)c(=O)n1C2	inactive
CC[C@H]1CN2CC[C@H]1C[C@@H]2CNCc1ccc(SC)cc1	inconclusive: 100 µM [inhibitor, partial curve]
CN1CCCC12Cc1ccccc1CN(C(=O)Cc1cccc(Cl)c1)C2 (stereo not drawn)	inconclusive: 79.4 µM [inhibitor, single point]
COc1ccc(NC(=O)N2[C@H]3CC[C@@H]2c2cnc(C)nc2C3)cc1F	inactive
CN(Cc1ccccc1)C[C@H]1CN2CC[C@H]1C[C@@H]2CNC(=O)Nc1cccc(C#N)c1	active: 89.1 µM
Cc1ccsc1C(=O)N1CCC2(CC1)NCc1ccccc1-n1ccnc12	inactive
COC[C@H]1C[C@@H](NC2CCC2)[C@H](O)[C@@H]1O	inactive
Cc1nc(C)c(C(=O)N2[C@H]3CC[C@@H]2c2cnc(-c4ccc(F)cc4)nc2C3)s1	inconclusive: 44.7 µM [inhibitor, partial curve, poor fit]
COc1cc2c(cc1OC1CCCC1)NC(=O)C21CCN(Cc2cccc(O)c2)CC1	active: 89.1 µM
Cn1nc(C2CCCCC2)cc1[C@H]1CN2CC[C@H]1C[C@@H]2CNC(=O)c1ccc2c(c1)OCO2	inconclusive: 56.2 µM [inhibitor, partial curve, poor fit]
O=C(O)c1cn(Cc2ccccc2F)nn1	inactive
COc1ccc(-c2cc([C@H]3CN4CC[C@H]3C[C@@H]4CNC(=O)c3ccc4c(c3)OCO4)n(C)n2)cc1	inconclusive: 56.2 µM [inhibitor, partial curve, poor fit]
Cc1ncc2c(n1)C[C@@H]1CC[C@H]2N1C(=O)C1CCCC1	inactive
COc1ccc([C@@H]2CN(C(=O)c3c(C)noc3C)[C@@H]3C4CCN(CC4)[C@@H]32)cc1	inactive
Cc1nc(-c2ccccc2)cc([C@H]2CN3CC[C@H]2C[C@@H]3CNC2CCOCC2)n1	active: 31.6 µM
Cc1nc(-c2ccccc2Br)cc([C@H]2CN3CC[C@H]2C[C@@H]3CNC(=O)c2ccc(N(C)C)cc2)n1	active: 28.2 µM
OCC1CN2CCCCC2CN1 (stereo not drawn)	inactive
CCN1Cc2ccccc2NC(=O)C12CCNC2 (stereo not drawn)	inactive
CC(C)CCN1CCC(N2CCN(C(=O)Cc3ccccc3F)CC2)C1=O (stereo not drawn)	inactive

Compound	Potency
CCOC(=O)[C@H]1CN(C(=O)c2cc3ccccc3s2)[C@]2(C)C(=O)N(C)c3ccccc3[C@H]12	inconclusive: 35.5 µM [inhibitor, partial curve, poor fit]
O=C(NC1CCCCC1)[C@H]1CN2CC[C@H]1C[C@@H]2Cn1cc(-c2ccccc2)nn1	inconclusive: 126 µM [inhibitor, single point]
N#Cc1ccc(C(=O)N2C[C@@H]3C[C@H](C2)c2c(-c4ccc(Cl)cc4)ccc(=O)n2C3)cc1	inactive
C#C[C@H]1CN2CC[C@H]1C[C@@H]2CNCc1ccc(N(C)C)cc1	inconclusive: 112 µM [inhibitor, partial curve, poor fit]
O=C(Cn1c(=O)oc2ccccc21)N1[C@H]2CC[C@@H]1c1cnc(-c3ccc(F)cc3)nc1C2	inconclusive: 89.1 µM [inhibitor, single point]
CCC(CC)c1cc([C@H]2CN3CC[C@H]2C[C@@H]3CNC(=O)Nc2cccc(C#N)c2)nc(-c2ccncc2)n1	inconclusive: 50.1 µM [inhibitor, partial curve, poor fit]
CCOC(=O)CCNC(=O)N1[C@H]2CC[C@@H]1c1cnc(-c3ccc(F)cc3)nc1C2	inconclusive: 89.1 µM [inhibitor, single point]
CN(C[C@H]1CN2CC[C@H]1C[C@@H]2CNC(=O)c1ccccc1)c1ccccc1	inconclusive: 112 µM [inhibitor, partial curve, poor fit]
COc1cc2c(cc1OCc1ccncc1)NC(=O)C21CCN(c2nc(C)cc(C)n2)CC1	inconclusive: 50.1 µM [inhibitor, partial curve, poor fit]
COc1cc2c(cc1OC1CCCC1)NC(=O)C21CCN(c2ncccn2)CC1	active: 100 µM
O=C1Nc2ccccc2C12CCN(Cc1cccc3ccccc13)CC2	inconclusive: 50.1 µM [inhibitor, partial curve, poor fit]
CCOC(=O)[C@H]1CN(C(=O)c2ccccc2)[C@]2(C)C(=O)N(CC3CC3)c3ccccc3[C@H]12	inconclusive: 39.8 µM [inhibitor, single point]
Cn1nc(-c2ccc3ccccc3c2)cc1[C@H]1CN2CC[C@H]1C[C@@H]2CNC(=O)N1CCOCC1	inconclusive: 44.7 µM [inhibitor, partial curve, poor fit]
CCOC(=O)[C@H]1CN(C(=O)OCC(C)(C)C)[C@]2(C)C(=O)N(CCO)c3ccccc3[C@H]12	inconclusive: 39.8 µM [inhibitor, single point]
O=C(NC1CC1)[C@H]1CN2CCC1C[C@@H]2Cn1cc(-c2ccccc2)nn1 (stereo partly drawn)	inactive
Cc1ccc(-n2cccc2CC(=O)N2CCN(C3CCN(C)CC3)CC2)cc1	inactive
Cc1nc(-c2ccc(N(C)C)cc2)cc([C@H]2CN3CC[C@H]2C[C@@H]3CNC(=O)NC(C)C)n1	inconclusive: 89.1 µM [inhibitor, partial curve, poor fit]
COc1ccc(NC(=O)N2[C@H]3CC[C@@H]2c2cnc(-c4ccc(F)cc4)nc2C3)cc1OC	inconclusive: 56.2 µM [inhibitor, partial curve, poor fit]
Cc1ccc([C@H]2CN(C(=O)C(=O)c3cccn3C)[C@@H]3C4CCN(CC4)[C@H]23)cc1	inactive
Cc1nc(-c2ccccc2Br)cc([C@H]2CN3CC[C@H]2C[C@@H]3CNC(=O)Nc2ccccc2)n1	active: 79.4 µM
CCCCS(=O)(=O)N1C[C@@H](c2ccc3c(c2)OCO3)[C@@H]2[C@H]1C1CCN2CC1	inactive

Compound	Potency
Cc1nn(C)c(C)c1S(=O)(=O)N1[C@H]2CC[C@@H]1c1cnc(-c3ccc(F)cc3)nc1C2	inconclusive: 25.1 µM [inhibitor, partial curve, poor fit]
N#CC1(c2ccccc2)CCN(C(=O)c2cn(-c3ccccc3)nn2)CC1	inconclusive: 50.1 µM [inhibitor, partial curve, poor fit]
C=C[C@H]1CN2CC[C@H]1C[C@@H]2CNCc1ccc(-c2ccccc2)cc1	inconclusive: 100 µM [inhibitor, partial curve, poor fit]
COc1ccc(CNC(=O)N2[C@H]3CC[C@@H]2c2cnc(-c4ccccc4)nc2C3)cc1	inconclusive: 79.4 µM [inhibitor, partial curve, poor fit]
COc1ccc(-c2cc([C@H]3CN4CC[C@H]3C[C@@H]4COC(=O)Nc3ccc(C(C)C)cc3)n(C)n2)cc1OC	inconclusive: 15.8 µM [inhibitor, full curve, poor fit]
Cn1nc(C2CCCC2)cc1[C@H]1CN2CC[C@H]1C[C@@H]2CNC(=O)Nc1ccccc1	active: 100 µM
COc1cc2c(cc1Oc1cccc(N(C)C)c1)NC(=O)C21CCN(Cc2nccn2C)CC1	inconclusive: 79.4 µM [inhibitor, partial curve]
COc1ccc(-c2cn(C[C@H]3CC4CCN3C[C@@H]4C(=O)NCc3ccc(F)cc3)nn2)cc1 (stereo partly drawn)	inconclusive: 50.1 µM [inhibitor, partial curve, poor fit]
CCOC(=O)[C@H]1CN(C(=O)c2ccc(F)cc2)[C@]2(C)C(=O)N(CCOC)c3ccccc3[C@H]12	inactive
COc1ccc(C(=O)N2[C@H]3CC[C@@H]2c2cnc(C)nc2C3)cn1	inconclusive: 20 µM [inhibitor, full curve, poor fit]
CCOC(=O)[C@H]1CN(C(=O)Cc2ccc(OC)cc2)[C@]2(C)C(=O)N(CC3CC3)c3ccccc3[C@H]12	inconclusive: 39.8 µM [inhibitor, partial curve, poor fit]
Cc1noc(-c2ccc(N3CC4CC(C3)c3cccc(=O)n3C4)nc2)n1 (stereo not drawn)	inactive
COc1ccc(NC(=O)NC[C@H]2C[C@@H]3CCN2C[C@@H]3c2cc(-c3ccccc3)nn2C)cc1	active: 28.2 µM
COc1ccccc1N1CCN(C(=O)[C@H]2CN3CCC2C[C@@H]3Cn2cc(C(C)(C)O)nn2)CC1 (stereo partly drawn)	inactive
CSc1cccc(NC(=O)NC[C@H]2C[C@@H]3CCN2C[C@@H]3CN(C)CCc2ccccn2)c1	inconclusive: 44.7 µM [inhibitor, partial curve, poor fit]
Cc1ccccc1C(=O)N1CCC2(CC1)NCc1ccccc1-n1ccnc12	inactive
CC(C(N)=O)N1CCC2(CC1)C(=O)N(C)c1ccccc12 (stereo not drawn)	inactive
COc1ccc(-c2cc([C@H]3CN4CC[C@H]3C[C@@H]4CNC(=O)Nc3ccccc3)n(C)n2)cc1OC	inconclusive: 50.1 µM [inhibitor, partial curve, poor fit]
CC(C)C(=O)N1[C@H]2CC[C@@H]1c1cnc(-c3ccc(F)cc3)nc1C2	inconclusive: 50.1 µM [inhibitor, partial curve, poor fit]
CCc1nnc2ccc(N3CCN(CC)CC3)nn12	inactive
COc1ccc(OC)c(S(=O)(=O)NC[C@H]2C[C@@H]3CCN2C[C@@H]3c2cc(-c3ccccc3OC)nn2C)c1	inactive

— PubChem BioAssay AID1345083 (National Center for Advancing Translational Sciences (NCATS), 2018)
